B1: chr4:112268257:112268372:+|CDS|ENSG00000138660|unk|FALSE|unique (ssRNA)
RNA: GGGAGUUCUACAGUCCGACGAUCAGUAAUCCUACAUCAGCCUCUGAUGAUUCCAAUGGGCUGGAGUGGGAAAAUGAUUUUGUUAGUGCCGAAAUGGAUGAUAAUGGAAAUUCCGAGUAUUCUGGAUUUGUAAAUCCUGUAUUACAACAGAGGAUUGAGCAUCA
B2: chr6:1612588:1612689:+|3pUTR|ENSG00000054598|msi1|FALSE|unique (ssRNA)
RNA: GGGAGUUCUACAGUCCGACGAUCUUUAUUCAUGGACUUGUUUUAAAAUGUAAAUUGCAACAUAGUAAUUUAUUUUUAAUUUGUAGUUGGAUGUCGUGGACCAAACGCCAGAAAGUGUUCCCAAAACCUGACGUUAAAUUGCCUCAACAGAGGAUUGAGCAUCA
B3: chr2:130338606:130338707:-|3pUTR|ENSG00000136710|unk|FALSE|unique (ssRNA)
RNA: GGGAGUUCUACAGUCCGACGAUCUACUCAGCCAAAAGAUCAGGACAAUAUGACUUGAGUCCACAAGGACACAAACACCUGAGUAGCUGGGCAGCCCUUGGCAGGGUCUAAGCCAGGAAGUAAAAAUGAUCUGGCCUAGAUAUUCAACAGAGGAUUGAGCAUCA
B4: chr16:21983864:21984660:-|three_prime_utr|ENSG00000155714|control|control|control (ssRNA)
RNA: GGGAGUUCUACAGUCCGACGAUCAAAGAAAAUUGAGCUGGCAAAAGAUGAAUCUUUCACAAGCAGUGAUGAUAAUGAAAAUGUAGAUUUAGAUAAAAGACUUCAAUAUUAUAGAUAUCCGUGGUCAACUGUGCAUCACCCUGCCAACAGAGGAUUGAGCAUCA
B5: chr5:111496093:111496242:-|3pUTR|ENSG00000164211|unk|FALSE|unique (ssRNA)
RNA: GGGAGUUCUACAGUCCGACGAUCUUUACAUGUAUAGUUAAAUAUUAAAAUUCAUCUCUUGCAGUUCAAUAAAAGCUAUAGUAUAGAUUUUAUUUUUAAGAAGUUUAUAUAAUUCUUUUGUGAACCAAUAUGUAAAACUAGAAUCAACAGAGGAUUGAGCAUCA
B6: chr14:95709946:95710881:-|three_prime_utr|ENSG00000100721|control|control|control (ssRNA)
RNA: GGGAGUUCUACAGUCCGACGAUCUCUGGGAGGAAUGGACAGACAGAGGAUGAGCUCUACCCAGGGCCUGCAGGACCUGCCUGUAGCCCACUCUGCUCGCCUUAGCACUACCACUCCUGCCAAGGAGGAUUCCAUUUGGCAGAGCAACAGAGGAUUGAGCAUCA
B7: chr2:69942770:69942871:+|3pUTR|ENSG00000059728|unk|FALSE|unique (ssRNA)
RNA: GGGAGUUCUACAGUCCGACGAUCUGUUUCCAGAUGUUUCUUUAUGUAAAUAUGACGCCAAUGUAAAUCCUGUGUCAAGAUCAUAGAGAAUGGUGCUUUUUACUACAGUUAGCACAUGCAUUUUUAGAAACUACUACAUGUUUUCAACAGAGGAUUGAGCAUCA
B8: ENSG00000125170:stop:overlap|stop_codon|ENSG00000125170|stop_codon|NA|stop_codon (ssRNA)
RNA: GGGAGUUCUACAGUCCGACGAUCAGCGGCUGGAGAAGUAUCCAGAUGAGAAGUCGGUGUGCCUCCGGGGCUGCCCCAAGAGCUAGAGGCAGAGGAGUGGUACAAGACACUAUCUGUGGAGUGUCUGGGGUCCCGCCUCAACGACAACAGAGGAUUGAGCAUCA
B9: ENSG00000070961:be:win_5451|3pUTR|ENSG00000070961|bound_else_gene|NA|bound_elsewhere_windowed (ssRNA)
RNA: GGGAGUUCUACAGUCCGACGAUCUGAUAUUUUUGGUGGGUGGGGGAAAUCUUUUUCUCACCAUCAAAUCUUUGCAGUAAUCCUCUGCAGGUCUUAGAAACACAUUGGCUCUGUCAGCAUUUGUAAUUGUACAUUUAUUCAUCACAACAGAGGAUUGAGCAUCA
B10: chr12:53210768:53210868:-|3pUTR|ENSG00000172819|msi1_unk|total|mutant (ssRNA)
RNA: GGGAGUUCUACAGUCCGACGAUCAGGGGGGAUGCUGCUCCGCUGAUCCCGCCCUGACCCAGAGGAAGCCUCUAUUUAUUUAUCCGCUUUUGUUUACACCGUGGAAUUGACCCCUUCCUCCAGGGGUCUUGGGUGGGGGAGCCCCAACAGAGGAUUGAGCAUCA
B11: chr20:34845330:34845491:-|CDS|ENSG00000131067|control|control|control (ssRNA)
RNA: GGGAGUUCUACAGUCCGACGAUCUGAGUUCACAGAGGAAGAGAUUGAGUUCCUGGAAGCCAGGGGUCACCACGUGGAGAAAGUAGAUGUCUUAUCCUGGGUCCAUGGCAGCCGAAGGACCAACAACUUCAUCAUCGCUGUUAACAACAGAGGAUUGAGCAUCA
B12: chr10:74118697:74119064:+|3pUTR|ENSG00000035403|msi1|total|mutant (ssRNA)
RNA: GGGAGUUCUACAGUCCGACGAUCGAAGAAAUCACAGAAUCAUAUGAUUCUGCUUUUACCAUGCCCCUGAGCAAUGUCUGUGCCCGGGAAACUUCCCGUCCCAUAUCCUGCCUCAGCCCGCCAAGGCCGCCAUCCCAUGAACACCAACAGAGGAUUGAGCAUCA
B13: ENSG00000140391:stop:overlap|stop_codon|ENSG00000140391|stop_codon|NA|stop_codon (ssRNA)
RNA: GGGAGUUCUACAGUCCGACGAUCUGUGCAGAAGGAGUAGAGAUCCUGCUUACGAGCUCCUCAUCACUGGCGGAACCUAUGCAUAGUUGACAACUCAAGCCUGAGCUUUUUGGUCUUGUUCUGAUUUGGAAGGUGAAUUGAGCACAACAGAGGAUUGAGCAUCA
B14: chr10:75150949:75151073:+|CDS|ENSG00000156671|unk|FALSE|unique (ssRNA)
RNA: GGGAGUUCUACAGUCCGACGAUCUGUUCGAAGAUUGGACCCAGAAUACUGGAAGACUAUACUGAGUUGUAUAUAUGUUUUUAUAGUAUUUGGAUUUACAUCUUUCAUUAUGGUUAUAGUCCAUGAGCGAGUGCCUGACAUGCACAACAGAGGAUUGAGCAUCA
B15: chr9:136116483:136116900:-|CDS|ENSG00000238227|control|control|control (ssRNA)
RNA: GGGAGUUCUACAGUCCGACGAUCUUCGACGUGUACAUCAAGACGCGCUGGCUGUACGGCUUCAUCCGCUUCCUACUCUACUUUAGCUGCAGCCUGUUCACUGCGGCGCUCUGGGGUGCGCUGGCCGCCCUCUUCUGCCUACAGCAACAGAGGAUUGAGCAUCA
B16: chr2:112646914:112647020:+|CDS|ENSG00000144136|unk|total|mutant (ssRNA)
RNA: GGGAGUUCUACAGUCCGACGAUCGCUCAUCCUGGGCUUCAUUAUUGCAUUUGUCUUGGCAUUCUCCGUGGGAGCCAAUGAUGCCGCAAAUUCUUUUGGUACAGCUGUGGGCUCAGGUGCCGUGACCCUGAAGCAAGCCUGCAUCAACAGAGGAUUGAGCAUCA
B17: chr3:98797769:98798349:-|3pUTR|ENSG00000057019|msi1|FALSE|unique (ssRNA)
RNA: GGGAGUUCUACAGUCCGACGAUCUUGUUUUUGAUACCUCCUGGCAGCUUCCAUGUCACCACUUGUUCAUACCUGCCCAGAGCUAGUUUUAGACAUGGCAAAAUAGAAAUCAUCUGUAAUUUAUUAGCUAACAAUGUAAAACCACAACAGAGGAUUGAGCAUCA
B18: chr12:13219749:13219850:+|3pUTR|ENSG00000134531|unk|total|mutant (ssRNA)
RNA: GGGAGUUCUACAGUCCGACGAUCACAACAGUGGAUGGGGAGGAAGAACAGACUUUUGAGCUCUUCCCAAUACCGGAAUGUGUCCGUUCUAAAAAUUUUCUUAAGUUGUUUGCUUGGAACUCAGAGUAUAUUUUUCCAUACGAACAACAGAGGAUUGAGCAUCA
B19: chr9:74692981:74693082:+|3pUTR|ENSG00000198963|unk|total|mutant (ssRNA)
RNA: GGGAGUUCUACAGUCCGACGAUCUUUUAUAUUACUUCCGAAUGUAACCGGUUUUUGUCCUUAUUUUAUGUCCUGUAAAUUAUCCGUUCAAUACUGUCCGCAUUCCCGGAUAAUGCACACAUGAUUUCUGAAUGUUUUCUGUAACAACAGAGGAUUGAGCAUCA
B20: ENSG00000136451:be:win_451|CDS|ENSG00000136451|bound_else_gene|NA|bound_elsewhere_windowed (ssRNA)
RNA: GGGAGUUCUACAGUCCGACGAUCAGUGCCAGCACCACAGCUAUGCCAGUGACCCAGUCUGUCAAGAAACCCAGUAAGCCUGUCAAGAAGAACCAUGCUUGUGAGAUGUGUGGGAAGGCCUUCCGAGAUGUGUACCAUCUCAAUCAACAGAGGAUUGAGCAUCA
B21: chr14:31448161:31448454:-|three_prime_utr|ENSG00000129480|control|control|control (ssRNA)
RNA: GGGAGUUCUACAGUCCGACGAUCUGGAAAAGAAGAAGGGUUUGAACUUUACUCUCAAUUUGUGACUCUAUGUGAAAAAGAAGUAGCUGCUAAUAGCAAGUGUGCUGAAGCUAGGGUUGUAGUGGAACAUGGCACUUAUGGGAACAACAGAGGAUUGAGCAUCA
B22: chr17:7656804:7656905:+|3pUTR|ENSG00000129244|unk|total|mutant (ssRNA)
RNA: GGGAGUUCUACAGUCCGACGAUCGCAUGUGCCACCAUGCCCGGCUAAUUUCUUUCUUUCUUUUUUUUUUUUUUUGCAUUUUUCCGCCGAGAUGGGGGUUUCUCCUUGUUGGUCAGGCUGGUCUCGAACUCCCGACCUCAGGUGCAACAGAGGAUUGAGCAUCA

Some of the results follow.

The assay concerns the target MSI1 full-length (mouse, UniProt Q61474 1-362). Description: nsRBNS (natural sequence RNA bind-n-seq); RBNS binding buffer (assumed for nsRBNS): 25 mM Tris pH 7.5, 150 mM KCl, 3 mM MgCl2, 0.01% Triton X-100, 500 ug/ml BSA, 20 U/ml SUPERase-In, 4 C; UNK is unkempt and MSI1 is Musashi-1; names of the RNAs are library labels; protein concentration not given here; high values mean tight binding.
UniProt Q61474, sequence (Q61474 whole entry): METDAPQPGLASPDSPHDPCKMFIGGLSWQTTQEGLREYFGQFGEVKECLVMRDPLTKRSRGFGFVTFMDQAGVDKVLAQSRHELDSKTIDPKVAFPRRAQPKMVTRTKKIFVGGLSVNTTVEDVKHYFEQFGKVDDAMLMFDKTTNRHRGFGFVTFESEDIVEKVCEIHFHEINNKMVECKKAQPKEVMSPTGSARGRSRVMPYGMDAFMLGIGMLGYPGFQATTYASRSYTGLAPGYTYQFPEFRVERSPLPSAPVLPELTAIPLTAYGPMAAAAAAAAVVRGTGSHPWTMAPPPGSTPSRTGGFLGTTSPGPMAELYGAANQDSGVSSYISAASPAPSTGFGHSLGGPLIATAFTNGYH
The molecule B1 registered a binding signal of 0.294 enrichment R.
The molecule B2 came in with a binding signal of 0.311 enrichment R.
Molecule B3 had a binding signal of 0.305 enrichment R.
The molecule B4 registered a binding signal of 43.6 enrichment R.
Molecule B5 had a binding signal of 2.64 enrichment R.
As to B6, the binding signal amounted to 0.347 enrichment R.
B7 returned a binding signal of 0.691 enrichment R.
The value for B8 was 5.74 enrichment R; that for B9 was 0.741 enrichment R; that for B10 was 0.626 enrichment R.
As for B11, the figure is 0.503 enrichment R; as for B12, 0.586 enrichment R.
In turn, B13 returned a binding signal of 1.42 enrichment R.
B14 registered a binding signal of 0.54 enrichment R.
In turn, B15 showed a binding signal of 0.554 enrichment R.
As for B16, the figure is 0.38 enrichment R; as for B17, 10.6 enrichment R; as for B18, 0.424 enrichment R.
As to B19, the binding signal is 0.521 enrichment R.
Consider B20, for which the binding signal came to 0.391 enrichment R.
B21: the binding signal was 0.653 enrichment R.
Take B22: the binding signal amounted to 1.66 enrichment R.

These data come from PMC12136788.
